Experimental data as given in PubChem BioAssay AID1159614 (National Center for Advancing Translational Sciences (NCATS), 2016).
In all, about 45,000 compounds went through this assay and about 65 (0.1%) were called active. Calls follow the shape of the dose curve; as a rule, active = well fitted activation curve with a large enough effect; inconclusive = small, poorly fitted or top-dose-only effect; inactive = no such curve, though single readings can be large or run the other way. Some of the results follow.

Each molecule was assayed against Galactocerebrosidase (Homo sapiens) (UniProt P54803) (assay: A Novel Cell-Based Assay to Identify Small Molecules for B -Galactocerebrosidase). Details: 145M-Twi-hGALC-G270D cells (Twitcher mouse brain line with human GALC G270D), HMU-beta-Gal fluorescence, 48 h; series mostly up to 57.5 µM; activation: at the top concentration.
How it was run: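 Brain-derived Twitcher mouse 145M-Twi cells stably expressing human GALC-G270D or wild-type GALC, treated live, then residual GALC activity read by fluorescence of HMU-b-Gal substrate (0.1 mM final) in citrate-phosphate buffer pH 5.2 with sodium taurocholate. Signal increase indicates enhancement.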
Also: 0% is about no effect; nearly all actives have a fitted effect of over 65% in size.

UniProt P54803, sequence (P54803 whole entry, looked up): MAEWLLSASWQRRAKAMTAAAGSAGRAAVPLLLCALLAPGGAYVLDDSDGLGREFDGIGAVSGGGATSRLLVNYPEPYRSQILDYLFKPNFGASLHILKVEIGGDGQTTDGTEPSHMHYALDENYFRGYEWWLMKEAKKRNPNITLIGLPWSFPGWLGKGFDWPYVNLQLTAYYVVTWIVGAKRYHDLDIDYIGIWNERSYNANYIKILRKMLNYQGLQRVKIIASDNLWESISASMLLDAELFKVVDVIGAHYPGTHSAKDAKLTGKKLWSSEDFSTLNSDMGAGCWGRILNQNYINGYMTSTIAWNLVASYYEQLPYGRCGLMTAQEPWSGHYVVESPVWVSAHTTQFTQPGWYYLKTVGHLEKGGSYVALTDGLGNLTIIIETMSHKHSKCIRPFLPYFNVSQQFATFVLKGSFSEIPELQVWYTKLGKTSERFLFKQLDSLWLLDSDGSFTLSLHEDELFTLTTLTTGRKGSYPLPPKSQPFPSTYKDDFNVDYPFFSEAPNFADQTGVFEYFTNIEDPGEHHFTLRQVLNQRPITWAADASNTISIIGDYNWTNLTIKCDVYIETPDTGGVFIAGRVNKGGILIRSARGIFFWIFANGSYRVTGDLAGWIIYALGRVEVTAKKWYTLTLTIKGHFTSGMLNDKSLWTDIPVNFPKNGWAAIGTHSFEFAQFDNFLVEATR

activation, inactive:
CC(=O)c1c(C)oc2c1cc(NS(=O)(=O)c1ccc(C(C)(C)C)cc1)c1ccccc12 -3.81%
COc1ccc(NC(=O)Cn2c(=O)c3ccccc3n3nncc23)c(OC)c1 -14.3%
Cc1cc(C)c(NC(=O)Cn2c(=O)n(Cc3ccc(C(=O)NCc4ccc5c(c4)OCO5)cc3)c(=O)c3ccccc32)c(C)c1 -3.14%
Cc1ccc(CNC(=O)C(C)n2nc(C)c3sc4ccccc4c3c2=O)cc1 (centres undefined) -14.2%
CCN(CCCNC(=O)c1nn(-c2ccc(C)cc2)c(=O)c2c1c1ccccc1n2C)c1cccc(C)c1 -16.3%
Cc1ccc(CNC(=O)c2ccc(N3CCCC3)c(NC(=O)Nc3ccc(F)c(Cl)c3)c2)cc1 -9.36%
Cc1ccc2c(c1)-c1c(c(C(=O)N3CCN(c4cc(C)ccc4C)CC3)nn1C)CS2 -13.2%
O=C(O)Cn1c(C(=O)Nc2nc(-c3ccccc3Cl)cs2)cc2ccccc21 -18.8%
COc1cccc(CNC(=O)CN2C(=O)COc3ccc(S(=O)(=O)N4CCOCC4)cc32)c1 -14.1%
CCn1c(=O)cc(OCC(=O)N2CCN(c3cccc(C)c3C)CC2)c2ccccc21 -9.06%
Cc1cccc(NC(=O)CN2C(=O)C(c3ccc(F)cc3)=NC23CCCCCC3)c1 -12.3%
CC(C)Cc1nn2c(=O)cc(COC(=O)c3ccc(NC(=O)C4CCCCC4)cc3)nc2s1 -8.62%
COc1cccc(C(=O)Oc2c(Sc3ccc(C)cc3)c(C)nn2C(C)(C)C)c1OC -8.08%
COc1ccc(NC(=O)c2cc(S(=O)(=O)N3CCCC3)ccc2OC)cc1 -1.95%
Cc1cccc(C)c1NC(=O)c1ccccc1C(=O)O -11.8%
COc1ccc(Nc2nc3ccc(Cl)cc3nc2-n2nc(C)cc2C)cc1 -4.69%
CCOc1ccc(C(=O)NCC(c2cccs2)S(=O)(=O)c2ccccc2)cc1 (centres undefined) -7.93%
CCOc1ccc(C(=O)NCCSc2c(C)[nH]c3ccccc23)cc1OCC -16.6%
Cc1cccc(C(=O)N2CCc3cc(CNC(=O)CSc4ccccc4)ccc32)c1 -10.7%
CCOc1ccc(NC(=O)c2cc(C)nc3c2c(C)nn3-c2ccc(C)cc2)cc1 -19.7%
CCOc1ccccc1NC(=O)c1ccc(F)c(S(=O)(=O)N2CCN(c3ccc(F)cc3)CC2)c1 -10.4%
Cc1ccccc1CNC(=O)CSc1nnc(C)c2c(C)n(-c3ccccc3)nc12 -15.5%
COc1ccccc1CNC(=O)c1cc2c(s1)-c1ccc(Cl)cc1SC2 -13.6%
CCN(CC)CCCNC(=O)CCC(=O)NNc1nc2ccccc2c2nc(C)nn12 -10.2%
COc1ccccc1N1CCN(C(CNC(=O)C(=O)NCc2cccnc2)c2cccnc2)CC1 (centres undefined) -11%
CCOc1cccc(CC(=O)N2CCc3c([nH]c4ccc(OC)cc34)C2c2ccc(F)cc2)c1OCC (centres undefined) -12%
O=C(COc1ccc(Cl)cc1)Nc1nnc(S(=O)(=O)N2CCCCCC2)s1 -12.6%
Cc1ccc(S(=O)(=O)n2nc(C)c(S(=O)(=O)N3CCCCCC3)c2C)cc1C -10.2%
Cc1ccn2c(Nc3ccc4c(c3)OCCO4)c(-c3ccccc3O)nc2c1 -7.72%
CCCCOc1ccc(C2C(C(=O)Nc3ccccc3OC)=C(C)Nc3nnnn32)cc1OC (centres undefined) -17.6%
CC(=O)N1CCCc2cc(S(=O)(=O)N3CCC(C(=O)Nc4ccc(C)cc4Cl)CC3)ccc21 -15%
Cc1ccc(-c2nn(-c3ccccc3)c3c2cnc2ccccc23)cc1C -3.37%
Cc1ccc(CNC(=O)c2ccc(Nc3nc4ccccc4n4nnnc34)cc2)cc1 -15.9%
Cc1ccc(NC(=O)c2oc3c(c2C)-c2[nH]ncc2CC3)c(Cl)c1 -14.1%
COc1cc2c(cc1OC)[C@@H]1CC(=O)[C@@H](CC(C)C)CN1CC2 -17.3%
Cc1cc(NC(=O)Nc2nnc(N3CCCCCC3)s2)ccc1Br -15.6%
Cc1cc(C)cc(NS(=O)(=O)c2ccc3[nH]cc(C(=O)NCCc4ccccc4)c(=O)c3c2)c1 -10.5%
COc1ccc(CCNC(=O)c2ccc3c(c2)N(Cc2ccccc2)CCS3)cc1OC -15.1%
Cc1ccc(C(=O)N2CCn3c4c(c5cc(C)ccc53)CCCC42)cc1 (centres undefined) -15.9%
CCOc1ccc(NC(=O)C(=O)NCCc2csc(-c3ccc(C(F)(F)F)cc3)n2)cc1 -14.2%
NNC(=O)CP(=O)(c1ccccc1)c1ccccc1 -2.55%
CC(C)c1ccc(NS(=O)(=O)c2cc(Br)cc3c2N(C(=O)C2CC2)CC3)cc1 -6.74%
Cc1ccc(S(=O)(=O)N(CCc2ccccc2)CC(=O)Nc2ccccc2C)cc1 -33.7%
Cn1cnc(S(=O)(=O)N2CCCC(C(=O)NCc3ccc(F)cc3)C2)c1 (centres undefined) -7.19%
COc1ccc(OC)c(-c2noc(N3CCN(c4ccc(Cl)cc4)CC3)n2)c1 -13.8%
Cc1ccc(S(=O)(=O)N2CCN(Cc3cc(Br)ccc3O)CC2)cc1 -0.206%
Cc1ccn2c(=O)cc(COc3ccc(NC(=O)COc4ccccc4)cc3)nc2c1 -8.77%
Cn1cc(S(=O)(=O)N2CCCCCC2)cc1C(=O)N1CCN(c2cccc(C(F)(F)F)c2)CC1 -12.4%
CCC(=O)N1CCc2cc(Br)cc(S(=O)(=O)N3CCCC(C(=O)NCc4ccc(F)cc4)C3)c21 (centres undefined) -4.15%
COc1ccc(-n2c(/C=C/c3cccc(C(F)(F)F)c3)nc3ccccc3c2=O)cc1Cl -9.42%
CCOc1ccccc1NC(=O)C1CCN(S(=O)(=O)c2ccc3[nH]c(=O)ccc3c2)CC1 6.78%
COc1cc(-c2nc(-c3ccc4c(c3)[nH]c(=O)n4C)no2)cc(OC)c1OC -14.8%
CCOc1ccc(CCNC(=O)C2CCN(Cc3nc(-c4ccc(OC)c(OC)c4)oc3C)CC2)cc1OCC -5.35%
CCc1ccc(NC(=O)COC(=O)CCCC2=NS(=O)(=O)c3ccccc3N2)cc1 -1.57%
O=C1CSC2(C(=O)N(Cc3ccccc3)c3ccccc32)N1c1cccc(F)c1 (centres undefined) -32.1%
N#Cc1ccccc1NC(=O)C(=O)NCCc1csc(-c2ccc(C(F)(F)F)cc2)n1 -8.53%
O=S(=O)(c1ccc(Cl)cc1)c1nc(-c2cccc(Br)c2)oc1NCc1ccccc1 -17.8%
COc1ccc(CCn2c(=O)c3cccnc3n(CC(=O)Nc3c(C)cccc3C)c2=O)cc1OC -25.9%
CCc1cccc(C)c1NC(=O)Cn1c(=O)n(-c2ccc(C)cc2)c(=O)c2c1cnn2C -16.8%
